FRET efficiency, FRET efficiency (y-intercept and stoichiometry N data for three substances are collected here from PMC3364239.

Where “and” joins values, the source holds several entries; their conditions need not be identical. Identical values can stand only once.

For test [1], the target named is Venus-CaMKIIα, expressed in HeLa cells (mouse) (UniProt P11798). The test is described as follows: FRET or BRET; hetero-FRET (Cerulean donor, Venus acceptor) in living HeLa cells, E-FRET method on an automated wide-field microscope; FRET efficiency against fraction donor, one point a cell, linear fit. (In BRET a luciferase serves as donor, and the signal depends on an acceptor being close.)
UniProt P11798, sequence (P11798 whole entry): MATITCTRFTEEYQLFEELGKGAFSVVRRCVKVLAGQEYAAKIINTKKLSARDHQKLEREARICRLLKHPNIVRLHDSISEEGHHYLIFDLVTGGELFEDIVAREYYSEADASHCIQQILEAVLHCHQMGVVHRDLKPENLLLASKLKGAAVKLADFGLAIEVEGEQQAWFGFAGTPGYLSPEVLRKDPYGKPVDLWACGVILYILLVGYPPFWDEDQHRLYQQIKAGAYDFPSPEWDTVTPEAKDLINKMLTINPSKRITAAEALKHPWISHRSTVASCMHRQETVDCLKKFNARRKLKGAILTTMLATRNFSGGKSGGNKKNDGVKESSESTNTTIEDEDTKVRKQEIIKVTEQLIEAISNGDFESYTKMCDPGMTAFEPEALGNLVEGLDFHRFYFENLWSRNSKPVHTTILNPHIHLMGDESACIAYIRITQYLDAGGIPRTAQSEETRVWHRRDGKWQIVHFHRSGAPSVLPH

The target in test [2] is Venus-tagged calcium-calmodulin dependent protein kinase-II alpha (Venus-CaMKIIα), expressed in HEK 293 cells (mouse) (UniProt P11798). The test is described as follows: brightness analysis by fluorescence correlation spectroscopy (FPFA); living HEK cells transfected with RNA; 6 mW excitation; room temperature; normalized brightness from the linear fit of the V2-V6 brightness controls in cells.

For test [3] the target is unchanged. The test is described as follows: brightness analysis by fluorescence correlation spectroscopy (FPFA); supernatants of homogenates of transfected HEK 293 cells (passive lysis buffer, 100,000 x g for 1 hour), diluted; two-photon excitation at 950 nm, 10.2 mW; room temperature; brightness normalized to that of Venus monomer.
In test [4] the target is V-CaMKIIα[TT305/306DD] (mouse) (UniProt P11798). The description is as above.

In test [1], “Cerulean-CaMKIIα (a stretch of the chain, sequence left out) (enzyme; other documents disagree on this pair)” gave an FRET efficiency of 0 to 40% and an FRET efficiency (y-intercept at donor fraction zero) of 39.4%. A word on the stoichiometry N: it is the number of molecules, sites or subunits per partner or assembly. With “Venus-tagged calcium-calmodulin dependent protein kinase-II alpha (Venus-CaMKIIα), expressed in HEK 293 cells (a stretch of the chain, sequence left out) (enzyme; other documents disagree on this pair)”, the stoichiometry N in test [2] is 11.9 and 8 subunits to 14 subunits (2×); in test [3] it was 10.2. “V-CaMKIIα[TT305/306DD] (a stretch of the chain, sequence left out) (enzyme; other documents disagree on this pair)” returned a stoichiometry N in test [4] of 10.7.
